Source: the RNAGym collection of RNA variant scans (doi:10.7554/elife.90254)
The source gives no read counts; variants with many changes may rest on few reads.

B1: LINE1-mini (parent)
chain: GGCAGAGCUCAACACAGCGUGGCAAAGUGGCUGUGGCUAGACUGCC

Variants of: B1
Assay: self-cleavage, relative activity (ratio to wild type); higher = more cleavage; in vitro, sequencing; the parent is a self-cleaving ribozyme

Row | Variant | self-cleavage
1 | G2C G35C C42A | 0.03
2 | G5C A11C U34G C42A | 0.01
3 | A24C U34A G44U | 0.11
4 | G1U U9G A12G G21U G36U U38G | 0.01
5 | A14C C18G G33U | 0.03
6 | C18G C23U A26C | 0.83
7 | C3U G21U G29U | 0.86
8 | A11G G33A G36C G44U | 0.02
9 | G21A G30C G33U | 0.06
10 | G22C U32A C46U | 0
11 | A25C A39G C46U | 0
12 | G7U G27C C31G | 0.03
13 | G2U C13G C18A G21A U28A | 0.01
14 | G5A C8G C31A U43C | 0.17
15 | G21U G35U U43A | 0.02
16 | G1U G5U C8G U9A G40U | 0.04
17 | A4U G17C C18A G27A | 0.02
18 | G1U G5A G30U | 0.02
19 | C10A A12U C15A C18U G36U | 0.03
20 | G5C G17A G29U C42U | 0.15
21 | A4C C10A G44U | 0

Row | Variant | self-cleavage
22 | C13G C18U U34A A39U | 0.06
23 | C3U C10A U43C | 0.02
24 | C13U A16C U28C G33A | 0.05
25 | C18U U28C A41G | 0.11
26 | U9G U32A G36U | 0.03
27 | U9G C10A G17A | 0.03
28 | C8U C10A G30C | 0.02
29 | G1A G22C G27A C31A U34G A39U | 0.03
30 | G7A U9C G17C U28G U34C | 0.01
31 | C13U C18U C46A | 0.07
32 | C18A G22A U28A C31A A39G U43G | 0.01
33 | G1C A24C U34A U38A | 0.01
34 | C8G C13U G35U | 0.29
35 | A6G G7U A11G C15A G21C G22U | 0.03
36 | G5U C18G U34C | 0.03
37 | G1U A11G C13A C18A G22C C37A A39C G44A | 0
38 | A14C A16C U28A | 0.07
39 | C10U A12U C13U | 0.07
40 | A6C A16C G33U | 0.02
41 | A11U U20A G35U | 0.02
42 | G1U A14U G17A U20C A26U | 0.05

Row | Variant | self-cleavage
43 | C8U C37A A39C G40U | 0.05
44 | C8G C10G U38A A39G | 0
45 | G5A C15G A16G C23A C31G | 0.03
46 | G1C G30C G36A C37A | 0
47 | G21A A25C C42G | 0.05
48 | G7C G17U U34A C46A | 0.04
49 | G7A C10G A26U | 0.02
50 | G1U C8A U9C U34G | 0.01
51 | C13U A25G C42G | 0.03
52 | C13U G21C G35U | 0.12
53 | C10A A41U C42G | 0
54 | G2C C13A G19U G29C U34A G35C A41G | 0.13
55 | U9G C31A C42A | 0.01
56 | G2U U9A U32G G40A | 0.02
57 | G33U U34G G40A C46U | 0.03
58 | G5C C8A U9A C23A | 0.08
59 | A4U A6G A39G A41C C46G | 0.02
60 | A4C C8G U34A C37U G40C C46G | 0.02
61 | C10U G22A A26G G27U C31G A41G | 0.02
62 | G2A G27U G35C A39G U43A | 0.01
63 | A6U C13G U20A C23G C42G | 0.02

Row | Variant | self-cleavage
64 | G7U A16C C23A U43G | 0.03
65 | G1U C13U C15U G36A | 0.1
66 | C8U A16G G40C U43G | 0.02
67 | G17A G27A A39U | 0.02
68 | C18A G19C A25G G44C | 0.25
69 | G1C C8A C15U | 0.04
70 | C3U C10U G19A | 0.19
71 | G7C A24C A39U | 0.02
72 | C10A U20G G30U | 0.01
73 | G1C A4C G22C | 0.04
74 | C8A U9G C31A U32A | 0.06
75 | G29U G35U A41G U43G | 0.03
76 | G17C C23A G30A C45U | 0.05
77 | A6U C15U C23G U32G | 0.03
78 | A4C A6G G22A | 0.04
79 | A4U C8A A14C | 0.07
80 | G5C G44U C46G | 0.19
81 | C10A A12C A16U G22U G40C | 0.01
82 | C3U C8U G27A U34A G35C | 0.55
83 | A12G C13G G30U U38A | 0.06
